# Data: the supplement of paper PMC3334620
# Whole data set: some 33,000 sequences, median “E-score (-0.5 to 0.5)” near -0.032, cut for the highest 2% near 0.36. This is one part of the list.
# Molecular target: T1, Sko1 (UniProt Q02100)
# T1 sequence: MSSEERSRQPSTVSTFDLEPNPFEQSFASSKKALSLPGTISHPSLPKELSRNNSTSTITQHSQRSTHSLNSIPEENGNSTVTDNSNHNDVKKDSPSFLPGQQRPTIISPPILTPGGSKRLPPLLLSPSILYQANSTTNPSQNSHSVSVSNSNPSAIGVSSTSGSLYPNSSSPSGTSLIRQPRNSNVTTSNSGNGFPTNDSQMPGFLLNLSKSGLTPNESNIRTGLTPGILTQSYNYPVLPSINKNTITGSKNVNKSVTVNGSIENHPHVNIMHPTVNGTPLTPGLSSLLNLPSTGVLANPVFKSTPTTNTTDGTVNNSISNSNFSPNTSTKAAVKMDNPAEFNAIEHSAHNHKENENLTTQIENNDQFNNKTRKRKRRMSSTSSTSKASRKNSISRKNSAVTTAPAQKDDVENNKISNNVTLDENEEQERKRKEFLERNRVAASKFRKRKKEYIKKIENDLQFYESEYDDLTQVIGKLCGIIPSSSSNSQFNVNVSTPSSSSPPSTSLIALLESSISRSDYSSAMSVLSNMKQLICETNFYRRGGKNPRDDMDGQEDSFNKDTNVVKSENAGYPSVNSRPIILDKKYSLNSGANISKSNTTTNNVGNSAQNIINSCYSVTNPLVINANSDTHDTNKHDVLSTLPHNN
# Assay: PBM E-score (8-mer binding enrichment) (E-score (-0.5 to 0.5)); higher = stronger / more preferred TF binding; most listed sequences are background and not binding sites
# Conditions: protein concentration: 200 nM; construct: GST-full length
# Method: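 Universal 'all 10-mer' protein binding microarrays (Agilent AMADID 015681) probed with GST-tagged S. cerevisiae TFs (full-length or DBD) made by in vitro transcription/translation (PURExpress), about 100-200 nM. Bound TF was detected with fluorescent anti-GST. Each ungapped 8-mer (which stands for itself and its reverse complement) is scored by the PBM enrichment score (E-score), a modified Wilcoxon-Mann-Whitney statistic from -0.5 to +0.5, computed with the Universal PBM Analysis Suite. Scale: above 0.35 generally sequence-specific binding.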
row,Sequence,PBM E-score
1,CGGGTGTC,-0.174
2,ACTAGCCA,-0.0674
3,AAGACTCC,-0.19
4,AACGTCCC,-0.0499
5,TAAGCCCA,-0.0558
6,GAAGTACA,0.123
7,CACGCTAC,0.00308
8,AAAGGAGC,-0.21
9,CCAGCTAC,-0.21
10,CGATCGCC,-0.0229
11,GAACCTCA,-0.069
12,GGGTCGGA,-0.118
13,ACTGGTGG,-0.227
14,AAGGGTCC,-0.3
15,CTATTACA,0.164
16,GTGGACAA,-0.108
17,CGAGTGTC,-0.0686
18,ATCGCGCC,-0.077
19,GGAGTAAA,0.236
20,AACAGCTT,-0.157
21,GGTTAGGA,-0.24
22,CGGAGCGA,0.0702
23,AACCATAT,0.119
24,CAAGTGGC,-0.0933
25,GCCAAGAA,0.0422

row,Sequence,PBM E-score
1,TCTCAAAA,0.154
2,CGGCTCCC,-0.235
3,CGCGCTTC,0.0143
4,ATAAGCTG,-0.146
5,CACCTGAC,-0.0244
6,ATTCGGGG,0.00111
7,AGACTCAT,0.183
8,TAGACATA,0.155
9,ACTCAGAG,-0.228
10,ACGAACCT,-0.146
11,ATTCGGAA,0.0857
12,CGCACAAA,0.139
13,AGGGTACT,-0.236
14,ATCCAGCG,-0.0882
15,CTAGTATA,0.0687
16,GCACCGTA,-0.0484
17,GCCTTACC,-0.223
18,AGTTCCGG,-0.347
19,AACTACAA,-0.0602
20,AATGATGT,0.427
21,GAAGCCTC,-0.181
22,TGAGTCCA,0.0345
23,GGTGCGGA,0.00084
24,ACAACTAC,0.0968
25,GTAGTAAA,0.152

row,Sequence,PBM E-score
1,GGGGCCTA,-0.353
2,CTATCAAG,-0.167
3,GTCTTCAC,0.0843
4,GTCTTCCA,-0.182
5,ACATAATG,0.295
6,ACGATAAT,0.255
7,ATAATTAC,0.376
8,GCACGTAA,0.459
9,ATCCGCAG,-0.0766
10,CGCTATAG,-0.00022
11,AAGGACAG,-0.235
12,GTTAGGTA,0.273
13,ATATCGTA,0.315
14,CTGCGAAC,0.047
15,AGATATAC,0.133
16,AATGGAGG,-0.235
17,ATAGAGCC,-0.0103
18,GCGACGGA,-0.237
19,ACAGGAGG,-0.289
20,GGCAGGTA,-0.257
21,CCAAGGTA,-0.203
22,AAAGACTC,-0.141
23,ATATTAGA,0.318
24,GTGTTAAA,0.0912
25,CCATGCCG,-0.137

row,Sequence,PBM E-score
1,AAAGGAGA,-0.0924
2,ACCGGCTA,-0.125
3,GCTTGACC,-0.242
4,GGAAGCGA,0.0143
5,AAGGATAA,0.0386
6,AGAAACGC,-0.0228
7,ATGTCCGG,-0.0905
8,CGTCGTCA,0.362
9,TCGAACCA,-0.0881
10,GGCGGTTA,-0.229
11,GCTCGTAC,-0.0469
12,ACCGATTC,-0.197
13,GCAAGAGA,0.0227
14,AGTCAGGC,-0.0572
15,CATCTGAA,0.0772
16,GAATCATC,0.0732
17,CGAAACTC,-0.0389
18,ATAGACTG,-0.0909
19,AGCAGGAA,-0.0486
20,CCGGAACG,-0.231
21,AAGGATCT,-0.148
22,CTGTGATA,0.00809
23,ATCCGAAT,0.206
24,ACCTCTAA,-0.0329
25,AGGCTGGG,-0.245

row,Sequence,PBM E-score
1,AATACATG,0.134
2,CGATATTC,-0.0106
3,ACGACCAG,0.0147
4,TGTATTAA,0.182
5,CTGTGGTC,-0.159
6,AGCATTAA,0.107
7,ACGCGCGC,0.22
8,AAACCCCA,-0.181
9,CTATCAGA,-0.189
10,AGCTAAGA,0.0674
11,GAGTCAAA,-0.0207
12,GCCGACCC,-0.329
13,ACTGTTGC,0.053
14,CATTCTCG,-0.121
15,CCATGGGC,-0.35
16,ATTGATAC,0.232
17,CACATAAA,0.294
18,CAACACTC,-0.0786
19,GGTGTGAC,-0.0191
20,GCCGTGTA,-0.221
21,CGCCCATA,-0.0644
22,TAGTCAGA,-0.00137
23,TTGCCCAA,-0.106
24,GTCGAGAC,0.0652
25,CGTCGTAG,0.0813

row,Sequence,PBM E-score
1,CGAGCGAA,-0.0462
2,CTGAACTA,-0.132
3,GGCGAGAA,-0.0627
4,CCTTGACC,-0.392
5,AGTCCGTG,-0.249
6,AACTCATG,0.195
7,GAGGGTCC,-0.279
8,ACGGCACG,0.104
9,TACTCACA,0.00754
10,CGTATGTA,0.367
11,AATTGCAG,0.0283
12,ACCCAGCC,-0.342
13,GCGCCGAA,-0.263
14,CATGATCC,-0.189
15,GGCGGTCA,-0.333
16,TAGTTAAA,0.253
17,CCTACCTA,-0.0375
18,AAAGCCGA,-0.353
19,CCGTGGGA,-0.28
20,CAGAGCCC,-0.255
21,AGATGTTA,-0.00044
22,TGAATTCA,0.24
23,AAAAAGTT,-0.0105
24,GGACATCA,0.205
25,CAGATACG,0.231

row,Sequence,PBM E-score
1,AAACGCCT,-0.154
2,AGATATGA,0.232
3,GATCGTGA,-0.064
4,CCACGTCA,0.477
5,CGCTCAGC,-0.212
6,CGAGTGAA,0.138
7,CGTCTGCA,0.106
8,GAAATGTA,0.0543
9,ATCTAGAC,0.0525
10,CTCGAAGA,-0.0558
11,GACTTCCA,-0.177
12,CATCTCAA,0.192
13,GTCTGAGA,0.00502
14,AAATCTCA,0.0937
15,TGACCGCA,-0.00327
16,CAGAATAC,0.125
17,CCCCGCAC,-0.133
18,AATGTAAC,0.0785
19,AGCAAATC,0.0775
20,GGAGAGGA,-0.321
21,GAGGGTTA,-0.0259
22,TAAATGTA,0.191
